# Data reported in PMC6919601, “Identification of Plasmodium dipeptidyl aminopeptidase allosteric inhibitors by high throughput screening” (PLoS ONE, 2019).
# The campaign covered roughly 110,000 compounds. About 230 (0.21%) showed an effect of 50% or more. Some of the results follow.
# Target: DPAP1 (Plasmodium falciparum, UniProt Q8IIJ9)
# Experiment: primary screen, percent inhibition; read by cleavage of a fluorogenic dipeptide substrate; higher = more effect of the substance
# Design: species or system P. falciparum D10 trophozoite lysates; single well
# 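Note: 30 min substrate incubation versus DMSO and 10 µM JCP410 controls.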
# Sequence of DPAP1 (Q8IIJ9 whole entry, looked up): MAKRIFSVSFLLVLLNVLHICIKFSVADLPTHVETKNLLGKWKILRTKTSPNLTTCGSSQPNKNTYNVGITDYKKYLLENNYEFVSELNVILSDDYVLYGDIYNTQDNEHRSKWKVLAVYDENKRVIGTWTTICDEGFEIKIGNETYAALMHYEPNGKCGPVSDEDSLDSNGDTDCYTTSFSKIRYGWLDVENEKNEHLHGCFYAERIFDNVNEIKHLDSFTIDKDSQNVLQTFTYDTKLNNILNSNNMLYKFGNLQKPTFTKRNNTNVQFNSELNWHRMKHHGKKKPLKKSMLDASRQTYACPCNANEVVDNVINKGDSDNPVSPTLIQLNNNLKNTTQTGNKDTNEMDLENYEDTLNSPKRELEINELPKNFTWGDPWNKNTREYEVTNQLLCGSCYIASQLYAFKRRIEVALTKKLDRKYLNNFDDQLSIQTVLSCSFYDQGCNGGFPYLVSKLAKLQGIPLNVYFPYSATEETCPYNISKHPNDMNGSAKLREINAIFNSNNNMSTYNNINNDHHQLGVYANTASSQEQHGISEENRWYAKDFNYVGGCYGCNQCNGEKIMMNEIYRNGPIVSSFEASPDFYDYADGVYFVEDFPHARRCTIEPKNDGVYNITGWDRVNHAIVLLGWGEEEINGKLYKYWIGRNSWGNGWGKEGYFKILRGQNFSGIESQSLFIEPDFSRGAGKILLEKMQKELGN
row,Structure (SMILES),% Inhibition @ 10 uM [%]
1,Cc1cccc(Cn2c(C)c(CNC3CCC(C)CC3)c(C(=O)O)c2C)c1 (stereo not shown),-3.67
2,O=C(Nc1ccc(S(=O)(=O)N2CCc3ccccc32)cc1)c1ccc(Cl)cc1,3.8
3,CC1CCN(C2=NC(=O)/C(=C/c3ccc(O)cc3)S2)CC1,-3.65
4,CC1CC(=O)C2=C(C1)OC(N)=C(C#N)C2c1ccccc1C(F)(F)F (stereo not shown),-2.78
5,O=c1oc2cc(O)c(Cl)cc2c2c1CCCC2,1.37
6,C=CCn1c(SCCOc2ccccc2)nc2sc(C)c(C)c2c1=O,-6.69
7,C=CCNc1nc(Cl)nc(NCCO)n1,-0.807
8,CCc1nc2ccc(C(=O)NC3CCN(Cc4ccccc4)CC3)cc2nc1CC,2.61
9,Cc1oc2cc3oc(=O)c(CCC(=O)NCc4ccc5c(c4)OCO5)c(C)c3cc2c1C,-6.29
10,NC(=S)N/N=C\c1ccc2c(c1)OCO2,-0.836
11,Cc1ccnc(NCc2ccc(O)c3ncccc23)c1,0.726
12,CC1CN(CN2C(=O)c3ccccc3C2=O)CC(C)O1 (stereo not shown),-9.05
13,CCOC(=O)CSc1cn2c(n1)CCC2,-3.13
14,CN(C)C(=O)CCc1nc(-c2ccc(Cl)cc2)no1,5.17
15,Cc1ccc(CN2CCc3ccccc3C2)o1,1.62
16,CCOc1ccc(C2/C(=C(\O)OC3CC(C)CCC3C(C)C)C(C)=Nc3ncnn32)cc1OC (stereo not shown),1.02
17,N=C(N)N(c1ccccc1)c1ccccc1,-10.4
18,CCOCCOC(=O)C1=C(C)NC(=O)NC1c1ccc(O)cc1 (stereo not shown),2.7
19,CC(C)P(=S)(c1c(F)c(F)nc(F)c1F)C(C)C,3.98
20,Cc1cccc(NC(=O)c2sc3nc(-c4cccs4)ccc3c2N)c1,2.69
21,Cn1cc(C=O)c2cc(S(=O)(=O)N3CCCCC3)ccc21,-2.54
22,CC(CNC(=O)c1cc(S(=O)(=O)N2CCOCC2)cn1C)c1ccccc1 (stereo not shown),5.86
23,Cc1cc(=O)oc(C)c1C(=O)OCC(=O)c1ccc(Cl)c(Cl)c1,-2.41
24,CC(=O)NC(=O)/C(C#N)=C/Nc1ccccc1C,7.12
25,NC(=O)CCS(=O)(=O)CCN1CCOCC1,4.65
26,CC(=O)c1ccc(NS(=O)(=O)c2ccc3ccccc3c2)cc1,-1.46

row,Structure (SMILES),% Inhibition @ 10 uM [%]
1,CC(C)Cc1csc2ncnc(N3CCCCC3)c12,-2.6
2,Cc1ccc(CNCCCSc2nnnn2-c2ccccc2)cc1,-1.11
3,CCOc1ccc(OCC(=O)Nc2cc(Cl)ccc2OC)cc1,-4.02
4,CCn1c(S)nnc1-c1csc2c1CCC(C)C2 (stereo not shown),-2.9
5,COCCCNC(=O)CN(c1ccc(Cl)cc1)S(C)(=O)=O,-5.4
6,Cc1c(C(=O)N2CCOCC2)oc2ccc3c(c12)C(O)CC(C)(C)O3 (stereo not shown),1.65
7,CC1CCCCN1CCC(=O)O (stereo not shown),-3.64
8,Cc1cccc(NC(=O)CSc2nc(N)cc(N)n2)c1,-3.37
9,Cc1ccc(Cc2c(C)nc3c(C(=O)NCc4cccnc4)cnn3c2C)cc1,-2.14
10,Cc1ccccc1OCC(=O)Nc1cc(Cl)ccc1Cl,1.91
11,CC(C)C(NC(=O)C1CCCCC1)C(=O)NCCc1ccccc1 (stereo not shown),-2.49
12,CCc1nn(C(C)C(=O)NCCCN(CC)CC)c(=O)c2cc3occc3n12 (stereo not shown),1.38
13,CSc1nc(N)nc2sc3c(O)cc(O)nc3c12,-1.68
14,Cc1sc(NC(=O)c2ccc(F)cc2)nc1C12CC3CC(CC(C3)C1)C2,0.177
15,Cc1ccc(OCC(O)CN2CCN(c3ccccc3F)CC2)c(C)c1 (stereo not shown),-10.7
16,CC(C)CC1=NN2C(=N)/C(=C/c3ccc4c(c3)OCO4)C(=O)N=C2S1,-3.06
17,Cc1nc(N2C(=O)C(O)=C(C(=O)c3cccs3)C2c2ccco2)sc1C (stereo not shown),-0.512
18,O=c1[nH]c(=O)n(CCc2ccccc2)c2c1CN(C1CCCCC1)CN2,-4.78
19,Cc1nc(SCC(=O)c2ccc(F)cc2)c2c(C)c(C)sc2n1,0.161
20,Cc1ccccc1-c1nc(CS(=O)CC(=O)N2CCC3(CC2)OCCO3)c(C)o1 (stereo not shown),-2.85
21,CCc1ccc(C2CC(=O)NC(SC)=C2C#N)cc1 (stereo not shown),0.121
22,O=C(COc1ccccc1)n1nc(-c2ccccc2)nc1NCc1ccco1,3.93
23,Cc1ccc(S(=O)(=O)Nc2c(C)nc3nc(C)nn3c2O)cc1,-3.34
24,CCOC(=O)c1c(C)nc2c(C3CCCN3C)cccn12 (stereo not shown),-4.35
25,O=c1c2ccccc2nc(CNCc2ccc(F)cc2)n1-c1ccc(F)cc1,-6.81
26,O=C(NCCCCNC(=O)c1cccs1)c1cccs1,-0.28

row,Structure (SMILES),% Inhibition @ 10 uM [%]
1,Cc1ccc(C)c(C(=O)C2=C(O)C(=O)N(CCCn3ccnc3)C2c2ccccc2)c1 (stereo not shown),0.83
2,Cc1onc(-c2ccccc2)c1C(=O)N(C)C,1.27
3,COc1cccc(N2C(=O)N(c3ccccc3Cl)C3CS(=O)(=O)CC32)c1 (stereo not shown),2.01
4,CC(C)Oc1ccc(C(CC(=O)N2CCCCC2)c2ccccc2)cc1 (stereo not shown),-1.18
5,CCc1ccc(Oc2nc3c(C)cccn3c(=O)c2/C=C(\C#N)C(=O)NC2CCS(=O)(=O)C2)cc1 (stereo not shown),-3.23
6,N#Cc1c(NC(=O)Cn2c(=O)sc3ccccc32)sc2c1CCCC2,2.38
7,CCN1C(=O)C(=CNc2ccc(Cl)cc2Cl)C(=O)N(CC)C1=O,3.05
8,COc1cc2c(cc1OC)C(c1ccccc1C(F)(F)F)NCC2 (stereo not shown),-0.0372
9,CCCCC(=O)Nc1c(O)oc2ccccc2c1=O,-2.23
10,COc1cccc(CNc2nc3ccccc3n2CCN2CCCCC2)c1OC,2.31
11,COC(=O)C1=C(C)NC(=O)/C1=C\c1ccc(O)c(OC)c1,-1.6
12,CCO/C(O)=C1/C(C)=Nc2nc(SCc3cccnc3)nn2C1c1ccc(OC)cc1 (stereo not shown),2.97
13,COc1ccc(/C=C/C(=O)NCCSc2nc3ccccc3s2)cc1,-6.17
14,Cc1ccc(F)c(NC(=O)c2ccc(Cn3cc(Cl)cn3)cc2)c1,2.7
15,CC(C)Oc1ccc(/C=C2\SC(=O)N(CC(=O)N3CCOCC3)C2=O)cc1,-1.22
16,Cc1ccc(C(C)C)c(OCc2nnc3c4cnn(Cc5ccccc5)c4ncn23)c1,-0.386
17,CCc1nc2cccnc2n1-c1ccc(CC(=O)NCCN(C)C)cc1,-2.56
18,C=CCN1CN(CCc2ccccc2)CNC1=S,-3.74
19,COc1ccc(NC(=O)c2ccc([N+](=O)[O-])cc2C(=O)O)cc1,-4.96
20,COc1ccc(C(CC(=O)O)NC(=O)COc2cc(C)c(Cl)c(C)c2)cc1OC (stereo not shown),2.7
21,O=C(Nc1ccccc1[N+](=O)[O-])c1cc2ccccc2oc1=O,1.8
22,O=C(CNC(=O)C1CCCCC1)Nc1nc(CC23CC4CC(CC(C4)C2)C3)cs1,-1.47
23,CCNc1nc(SC(C)C(=O)Nc2ccccc2)nc(N2CCOCC2)n1 (stereo not shown),-4.01
24,CC1CCC(N2CCC(N3CCCCC3)CC2)C1 (stereo not shown),-3.8
25,O=C(CN1C(=O)S/C(=C/c2ccccc2Cl)C1=O)Nc1ccc(F)cc1,7.85
26,COc1ccccc1C1NC(=O)c2sc(=S)n(-c3ccccc3)c2N1 (stereo not shown),6.66

row,Structure (SMILES),% Inhibition @ 10 uM [%]
1,COc1ccc(CCNC(=O)c2cn(C3CCCC3)c(=O)c3c2c2ccccc2n3C)cc1OC,-1.58
2,COc1ccc(-c2noc(CN(C(=O)C(c3ccccc3)c3ccccc3)C(C)C)n2)cc1,-0.352
3,CCOc1cc(CN2CCN(c3ccccn3)CC2)ccc1OC,0.605
4,CCN1CCCC1CNC(=O)C1c2ccccc2C(=O)N(CCOC)C1c1cccs1 (stereo not shown),-1.48
5,Cc1ccc(CNC(=O)CCc2c(C)nc3c(c(C)nn3C(C)(C)C)c2C)cc1,-4.24
6,CCc1ccc(CNC(=O)CCC(=O)n2ncc3cc(C)ccc32)cc1,-1.11
7,CCC1SC2=NC(C)=C(C(=O)OCCOC)C(c3ccc(OCc4ccccc4)cc3)N2C1=O (stereo not shown),3.87
8,CCCc1nc(-c2ccc(-c3ccc(C)cc3)nc2OC)no1,2.1
9,COc1ccc(-c2onc(C)c2C)cc1S(=O)(=O)NCCCN1CCCC1=O,0.879
10,CC(=O)NS(=O)(=O)c1cccnc1Nc1ccc(Cl)c(C(F)(F)F)c1,-1.51
11,Cc1cccc(NC(=O)C(CC(C)C)N2C(=O)c3ccccc3C2=O)c1 (stereo not shown),-0.469
12,O=C(COc1nsnc1N1CCOCC1)Nc1ccc2c(c1)OCCO2,1.93
13,Sc1n[nH]c2nc3nc4ccccc4c-3nn12,3.43
14,O=S1(=O)N=C(Nc2ccccc2Cl)c2ccccc21,4.26
15,O=C(c1cc2c(s1)-c1ccccc1OC2)N1CCN(c2ccccn2)CC1,6.41
16,CCN1CCN(C(=O)c2cnn(-c3ccccc3)c2-n2cccc2)CC1,-7.1
17,COc1ccc(S(=O)(=O)N2CCC(C(=O)N3CCC(C)CC3)CC2)cc1OC,-9.24
18,O=C1C2C3C=CC(C3)C2C(=O)N1Cc1ccco1 (stereo not shown),0.275
19,O=C(CC(O)(c1ccccc1)C(F)(F)F)c1ccccc1 (stereo not shown),1.63
20,COc1ccc(C(=O)Nc2sc3c(c2C(N)=O)CCCCCC3)c(OC)c1,28.3
21,CC(Oc1ccccc1F)C(=O)Nc1ccc2ccccc2c1 (stereo not shown),-7.08
22,Cc1ccsc1CN(C(=O)c1ccco1)C1CCS(=O)(=O)C1 (stereo not shown),2.19
23,CCCN1C(=O)c2[nH]nc(-c3ccccc3O)c2C1c1cc(Br)c(O)c(OC)c1 (stereo not shown),3.62
24,CCOC(=O)c1c(NC(=O)C(F)(F)F)sc2c1CCN(C(=O)OCC)C2,6.23
25,Fc1ccc(N2CCN(Cc3c[nH]c4ccccc34)CC2)cc1,2.23
